Measurements from the supplement of paper PMC10441789.
The list shows a part of the results. Antibody binding of pooled human sera (four to six donors per pool; dilution not stated) to peptides of the Trypanosoma cruzi antigen TSSA on microarrays. Quantile-normalised fluorescence in arbitrary units, mean of duplicate arrays; higher = more binding. No active / inactive call. The uninfected pools are read here as the healthy donors of the same country. The strongest signals lie near the top of the scale (about 60,000).

Tested on: pooled sera of uninfected people, Brazil
Assay: antibody binding signal (normalised fluorescence) (arbitrary fluorescence units); higher = stronger serum antibody binding to peptide
Procedure: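 Microarray of overlapping 15-residue peptides of the four Trypanosoma cruzi TSSA reference variants and 8- to 13-residue peptides of TSSAII 24-62, probed with one serum pool per country.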

Sequence	antibody binding signal
TENKPATGEAPS	280
ANGGSTISTPPSGTD	135
KTAAGEAPSPSGASS	222
ISTPPSGTDKKTAAG	150
GEAEASSNKNDGSLS	1190
GSTSSTPPGTDKKTA	160
PPSGTENKPAT	1070
GASSGEAE	94.9
KAAAGEAPSPSGASS	96.3
TANGGSTSSTP	198
NGGSTSSTPPSGT	242
SACTTANGGSTSSTP	267
NGGSTSSTPPSG	400
PPGTDKKTAAGGTPS	720
PATGEAPSQPG	379
GASSGEAEASS	125
PGASSGEAEASS	115
GSTSSTPPS	218
ASSGEAEASSNKNDG	147
TDKKTAAGEAPSPSG	184

Sequence	antibody binding signal
NGGSTSSTPPGTDKK	124
TPPSGTDKKTAAGEA	423
TTANGGSTSSTPPSG	372
LSACTTANGGSTIST	144
KKTAAGEAPSPSGAS	95.2
AGGTPSPSGASSGEA	171
TPPSGTEN	121
SGTENKPATGEAPSQ	359
STISTPPSGTDKKTA	233
ACTTANGGSTSSTPP	316
TACTTANGGSTSSTP	214
KPATGEAPSQPG	448
SGTENKPATGEA	268
TISTPPSGTEKKAAA	235
SQPGASSGEAEA	106
TANGGSTSSTPPS	251
GASSGEAEASSNKND	152
PSQPGASSGEAEASS	109
STSSTPPSGTENK	263
TANGGSTSS	611
